Whole data set: some 33,000 sequences, median “E-score (-0.5 to 0.5)” near -0.043, cut for the highest 2% near 0.37. The list shows a part of the results.
molecular target: T1, Upc2 (UniProt Q12151); assay: PBM E-score (8-mer binding enrichment) (E-score (-0.5 to 0.5)); higher = stronger / more preferred TF binding; most listed sequences are background and not binding sites; settings: protein concentration: 200 nM; construct: GST-full length
T1 sequence: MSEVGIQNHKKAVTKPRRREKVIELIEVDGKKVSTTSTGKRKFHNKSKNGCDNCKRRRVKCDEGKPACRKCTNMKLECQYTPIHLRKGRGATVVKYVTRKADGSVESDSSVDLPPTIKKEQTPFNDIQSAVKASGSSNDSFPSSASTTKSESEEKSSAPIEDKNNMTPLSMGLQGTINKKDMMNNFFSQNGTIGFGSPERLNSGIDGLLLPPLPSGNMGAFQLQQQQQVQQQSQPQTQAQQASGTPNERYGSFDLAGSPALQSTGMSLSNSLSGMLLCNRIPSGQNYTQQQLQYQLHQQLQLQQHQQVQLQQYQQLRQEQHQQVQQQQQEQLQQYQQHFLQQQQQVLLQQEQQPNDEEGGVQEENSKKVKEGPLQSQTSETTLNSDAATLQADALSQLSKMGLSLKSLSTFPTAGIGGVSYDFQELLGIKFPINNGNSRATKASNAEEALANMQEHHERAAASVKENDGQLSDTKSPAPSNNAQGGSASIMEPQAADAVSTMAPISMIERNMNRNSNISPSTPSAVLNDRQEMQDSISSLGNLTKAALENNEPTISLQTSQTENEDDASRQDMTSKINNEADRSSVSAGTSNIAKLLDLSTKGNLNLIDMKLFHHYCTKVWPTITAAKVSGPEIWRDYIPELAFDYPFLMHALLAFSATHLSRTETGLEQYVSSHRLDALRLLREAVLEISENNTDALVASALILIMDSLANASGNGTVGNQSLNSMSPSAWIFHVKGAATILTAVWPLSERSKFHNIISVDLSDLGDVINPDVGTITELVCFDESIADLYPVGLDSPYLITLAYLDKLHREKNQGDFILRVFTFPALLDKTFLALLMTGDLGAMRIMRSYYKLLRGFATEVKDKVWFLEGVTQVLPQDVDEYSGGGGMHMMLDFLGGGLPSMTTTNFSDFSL
In short: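 Full-length yeast transcription factors or their DNA-binding domains, GST-tagged and expressed with PURExpress, were applied at about 100-200 nM to universal all-10-mer Agilent arrays. These arrays had been made double-stranded by primer extension on fresh or once-stripped slides. Detection used fluorescent anti-GST, normalisation used masliner, and E-scores for ungapped eight-base words pooled with reverse complements came from the Universal PBM Analysis Suite.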

Row | Sequence | PBM E-score
1 | GTAGCATA | -0.0733
2 | TTAAAAAA | 0.129
3 | ACCCCGTG | -0.0557
4 | CGTAATAC | 0.274
5 | CCGCTGGA | -0.0874
6 | ATTATTCG | 0.179
7 | GTAAGGAA | 0.0353
8 | CGAGCGAG | 0.28
9 | ATTATAAG | 0.151
10 | GCTTAGGA | -0.0422
11 | CCATTACA | 0.154
12 | CGGAGCCA | -0.254
13 | GAGGGCAC | -0.183
14 | ACCCTTTA | -0.00687
15 | ACGGCAAA | 0.174
16 | AGCCCCCC | -0.0354
17 | CAATATCG | 0.0727
18 | CGCAGAGC | -0.107
19 | CTAACTGC | -0.183
20 | AACCCCCC | -0.204
21 | ATGCCCCC | -0.151
22 | GCATCTTA | 0.184
23 | CCTATGCG | 0.152
24 | AACCGTCG | 0.246
25 | ATCCCGCA | -0.0502

Row | Sequence | PBM E-score
26 | CATCGTGC | 0.054
27 | AAAAGCGA | 0.175
28 | GTCCTTGA | -0.103
29 | CTCCGTGA | -0.152
30 | ACCTACAG | -0.143
31 | GAGACTAC | -0.0152
32 | CCGAAAAC | 0.0594
33 | AAGACTGA | -0.0443
34 | CCAATTAC | 0.0231
35 | AATGGTAG | 0.142
36 | GTCGCTGA | -0.0513
37 | GACCACAA | -0.239
38 | CATCAAGG | -0.155
39 | GTACTAAC | 0.0835
40 | ACATACAG | -0.0295
41 | AGCGATGG | -0.00122
42 | AAATGCTG | -0.0296
43 | CTTGGTGA | -0.0852
44 | AATTAAGC | 0.207
45 | CCTGAGTA | -0.119
46 | CTGGCCGC | -0.329
47 | CTCAGTAA | -0.00462
48 | GAATAAGA | 0.0821
49 | AAATTATA | 0.112
50 | CATCTGGC | -0.219

Row | Sequence | PBM E-score
51 | CCGGAAGG | -0.336
52 | AACTATGC | 0.051
53 | CTTTAACC | 0.0671
54 | ACGTTGAG | -0.0536
55 | AAGCCAAA | -0.0119
56 | CATAGCCC | -0.234
57 | ATAAACTG | -0.0103
58 | TAGAATAA | -0.0184
59 | CACAGGCC | -0.201
60 | GGGCACAC | -0.26
61 | CATTTCGA | 0.0247
62 | CTGGAATC | -0.224
63 | TCATTGAA | 0.089
64 | GAGCGGGA | -0.0733
65 | TGTTTTAA | 0.0305
66 | CGAATGGA | 0.0618
67 | CATACACA | -0.0566
68 | AATTAAAA | 0.0987
69 | ATTCCCGA | -0.0491
70 | ACGTTTAC | 0.369
71 | CATCCGGA | -0.146
72 | ACCCACCA | -0.0846
73 | ATGTCGAA | -0.0759
74 | GGGGCGGA | -0.0859
75 | TACACTCA | 0.0414

Row | Sequence | PBM E-score
76 | AATGAATG | -0.207
77 | AGACTCAA | -0.0452
78 | CTAAAACA | -0.0791
79 | CCTCGGTC | 0.19
80 | CATTAGAG | -0.169
81 | CTTAGAAC | 0.00227
82 | CTCTAACA | -0.111
83 | AAGTGGCG | 0.0293
84 | CATTCTGG | -0.169
85 | CTGAAGGA | -0.309
86 | AGTAGTCC | -0.107
87 | CTCTAGTA | -0.184
88 | AATTCTTC | 0.115
89 | ACCACGAT | 0.0232
90 | GCTCGTGA | 0.00182
91 | CCTCTTTC | -0.156
92 | GTCCACCA | -0.134
93 | CAGTTTGG | -0.266
94 | GCGTGAGC | 0.0279
95 | CATTACAC | 0.132
96 | GGTTCTAA | -0.0363
97 | CGATATGC | 0.149
98 | ACCGCTAT | -0.0957
99 | TAAGGAGA | -0.186
100 | ATCCACCG | 0.0348

Row | Sequence | PBM E-score
101 | CCCTTGAA | -0.129
102 | ATTTGTGC | 0.125
103 | CCACCTGG | -0.371
104 | ATGTTTCG | 0.0556
105 | CGTGGTAA | -0.117
106 | ACTGGTTG | -0.114
107 | AGTCAGAC | 0.00734
108 | GAAAATGC | 0.0565
109 | CCTATCAG | -0.238
110 | CAGATACC | -0.184
111 | AGCCGATC | -0.123
112 | ATCAACGG | 0.0765
113 | GCAATGCA | -0.0366
114 | AGAGCCTG | -0.0262
115 | ACTTTGGG | -0.338
116 | AAGGTACG | 0.393
117 | CAGACTGC | -0.057
118 | GTGAATGA | -0.134
119 | TCTAAGAA | -0.0204
120 | ACAATTAC | 0.133
121 | AGACCGCG | 0.075
122 | ACTCGTAG | 0.353
123 | GCCAGCGC | -0.189
124 | AACCCCTA | -0.214
125 | AGAGATAG | 0.0762

Row | Sequence | PBM E-score
126 | GCCGGGCA | -0.207
127 | ATACTTGA | -0.0534
128 | AGCGGCTC | 0.122
129 | AATCTGGA | -0.0824
130 | GGCCATAA | -0.138
131 | CCGGATAC | 0.101
132 | AATACATC | 0.0318
133 | CGAGAGAG | 0.17
134 | GGCGGCCC | -0.266
135 | AACATTCA | -0.0881
136 | GTCGTTGA | 0.29
137 | CCATTAGG | -0.249
138 | CGAACGAG | 0.427
139 | AATACGAC | 0.435
140 | AGGATCAA | -0.144
141 | ATAATCTG | -0.246
142 | AAATCCCT | -0.13
143 | ACCCCACC | 0.0949
144 | CAAGATCA | -0.208
145 | CGACTCAG | -0.0901
146 | ACTTACTA | -0.0802
147 | CTTTCTAA | -0.127
148 | ATACCCCA | -0.0468
149 | TGGGGACA | -0.106
150 | GAGTCTCA | -0.168

Row | Sequence | PBM E-score
151 | AGACATTA | -0.191
152 | CAAAGGCG | -0.0107
153 | ATTGTGAA | 0.0323
154 | GCAAGGTA | -0.0839
155 | CAGCCCCA | -0.0376
156 | CCTATGAA | -0.25
157 | GGATACAA | -0.0197
158 | CACCGCGG | 0.0827
159 | ACCTCACA | -0.0443
160 | ACCTCGAG | 0.0906
161 | CATTATTA | 0.0362
162 | CCTTAAAC | 0.315
163 | CGGACCGA | 0.168
164 | CCCGGGAC | -0.271
165 | TCACAAAA | -0.0213
166 | CTTGTGTC | -0.134
167 | CCCTGGAA | -0.172
168 | AGCACGGA | -0.0713
169 | ACACACCC | 0.0815
170 | TGGATAAA | 0.0644
171 | ACGTATCC | 0.163
172 | CGTTGTCC | 0.0654

Reference: the supplement of paper PMC3334620
